Reference: the supplement of paper PMC11417369
± gives the standard deviation of the averaged measurements. The list shows a part of the results.

What follows are sequences tested on PfAP2-G AP2 domain (GST-tagged) (assay: gcPBM binding intensity (ln(normalized median fluorescence intensity)); higher = stronger DNA binding).
Outline: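 Alexa488 anti-GST antibody, scanned at 488 nm, detected GST-tagged P. falciparum DNA-binding domains that had been expressed in E. coli and incubated for 1 h on an Agilent 4 × 180k array. The array carried primer-extended double-stranded 36-bp intergenic genomic probes and negative controls. Binding intensity is the highest Masliner-normalised natural-log median intensity across replicate spots of either orientation of each probe.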

| Sequence | gcPBM binding intensity (ln) |
| --- | --- |
| ATTTAGAATGTTCCTACACACCAAATTTAAGGGTGC [CACACA_site5320] | 10.02 ± 0.035 |
| TTTTTTTTTCTCCATACACACTTGATAAAACTTTTT [CACACA_site4512] | 10 ± 0.13 |
| ATTTATATTCCAATATGTACATATTTTCGTATAACC [XGTACX_site8507] | 11.3 ± 0.85 |
| ATTACAAATTCTTTCAGTACATATAAAGAAAAAAAT [XGTACX_site7786] | 11 ± 0.67 |
| TGAAATTAAATATATACACACATATATATTTATATG [CACACA_site3516] | 9.89 |
| AAACAAAAGGAAAACATATATATATTAAATGTATAT [CACACA_negctrl_site1663] | 9.64 ± 0.33 |
| AAACGGGAGAAATAAAAATAAAAATAATAAAACAAA [XGTACX_negctrl_site586] | 9.8 ± 0.23 |
| TATACTCATGGACACACACACATACACAGACATACA [CACACA_site5024] | 10.8 ± 0.47 |
| TAAATATGAGGGAACACACACATGATATATAAATTC [CACACA_site2400] | 10.04 ± 0.049 |
| GGAAATAAAATTAAATGTACGAAAACTCATTAAATT [XGTACX_site4274] | 10.6 ± 0.41 |
| TTCATATATAATTGTACACACAAAAACGACATTGTG [CACACA_site2074] | 11.6 ± 1 |
| TAAATTGGTGCAAAGTGTACATATATATCTTTCCTA [XGTACX_site5458] | 11.1 ± 0.61 |
| GAGAAAAATATATACACACACATAAATATATACATA [CACACA_site1895] | 9.835 ± 0.064 |
| TAAATAAAAAGACACACACACATATTTATATTTATA [CACACA_site7135] | 9.975 ± 0.035 |
| ATATTAAAAAGGAAATGTACGTAATGAAGATCAAGT [XGTACX_site3138] | 11.4 ± 0.79 |
| ATATATGATGTATTTGTGCACATATATATATTATTA [GTGCAC_site9471] | 10.3 ± 0.2 |
| AAATATCAACTCAAATGTACAAATCACAAAAATGTA [XGTACX_site5344] | 10.6 ± 0.53 |
| ATTGCCATTGTTAATGCATGTAACAATTCAGCTCAT [TGCATGCA_site56] | 9.83 ± 0.014 |
| ATTGTTAAATATAATACACACGTTTTTAAAAATATA [CACACA_site5239] | 10.1 ± 0.14 |
| TAAAAATAAATAAATACATGCACCAAAAATAAATTT [TGCATGCA_site801] | 10.02 ± 0.042 |
| AAAAAAAAAAAACATACACACACATATATATATATA [CACACA_site8452] | 9.89 ± 0.37 |
| AATTTGATTATAAATTGTACATATATATATTAAAAG [XGTACX_site5461] | 11 ± 0.6 |
| AAAATTATTTAGTAAGTGCAAAAAAAAAAAAAAAAA | 9.77 ± 0.43 |

| Sequence | gcPBM binding intensity (ln) |
| --- | --- |
| TATACACATAGACACACACACAAAAAAAAAAAAAAA [CACACA_site6338] | 10.1 ± 0.63 |
| GAAAGAAAAAATGATGAATAGAGATCAAATCTATAT [XGTACX_negctrl_site28] | 9.47 ± 0.49 |
| AAGAAAAAAAAAAAAACACACATATATTTATTTATA [CACACA_site7042] | 9.36 ± 0.32 |
| TTGAGAAAAATTAATGGTACACATATTATAAGTATA [XGTACX_site6539] | 11.3 ± 0.93 |
| TGTATAACATTTAGGTGTACAATTATATATAATATA [XGTACX_site8131] | 11.4 ± 0.95 |
| TAATTGTACACATGCACACACAAATATTATAGATGT [CACACA_site6528] | 11.4 ± 0.92 |
| TGACATATTATTAGGTGGTCACGTCTCCACGTCAAG [XGTACX_site7943] | 11.4 ± 0.87 |
| AGGCTATAATACCATACACACATTTATAAAATAACA [CACACA_site6990] | 10.12 ± 0.092 |
| TAAAAATTTGATCAAACACACGTTGCATAAATTATA [CACACA_site6040] | 10 ± 0.042 |
| TACATATAAACAATAACACACACCTAGGTACATGGA [CACACA_site8178] | 10.9 ± 0.54 |
| AATTAACAAAAACACACACACACACCCACAAAAAAA [CACACA_site517] | 10.4 ± 0.46 |
| ACATATATTTATATATGTACATATGATATATACATA [XGTACX_site6122] | 11.3 ± 0.67 |
| CTTTTGTATATTATATGTACACACAATAAGTTAATA [XGTACX_site1684] | 11.5 ± 0.92 |
| TTATGTGATAAAAAAAAAATACAACAAAGTTAAATA [GTGCAC_negctrl_site36] | 9.915 ± 0.035 |
| ATATATATATATATAATACACACTTATGAAATGTCT [CACACA_site1827] | 10.3 ± 0.45 |
| TTTTTTATATTGTGATGTACAAATTTTAAAATGTAG [XGTACX_site1875] | 11 ± 0.73 |
| GTGTGGAGTTACAAAGAGGAGAACCTCACAGTAATC [CACACA_negctrl_site527] | 10.2 ± 0.28 |
| AAATTCGTTATAAAAACATGCAACGATCAACATTGT [TGCATGCA_site844] | 9.905 ± 0.007 |
| TTACTCTTTATATAATGTACATATATATATATATTA [XGTACX_site2624] | 11 ± 0.52 |
| GTAATATTAAAATATACACACATAGAATATATATAT [CACACA_site4391] | 9.99 ± 0.23 |
| ATAATCATAAAATAAACACACATATATAAATATATT [CACACA_site276] | 9.9 ± 0.17 |
| TTACACATATTTTTAATTATTCTGAATTCAAAAAAA [CACACA_negctrl_site1706] | 9.775 ± 0.078 |
| TTATATTTATTGATATGTACATATTATAATTAATTA [XGTACX_site586] | 11.1 ± 0.7 |

| Sequence | gcPBM binding intensity (ln) |
| --- | --- |
| AAAAATGCCAGAAAACGTACTCGGATTTTCTAATAT [XGTACX_site6552] | 11.1 ± 0.74 |
| TGATTACATATGATGTGTACCTAATTTTGTTTACAC [XGTACX_site7032] | 11.2 ± 0.54 |
| AAAACACGCGGACACACACACACACCCACCCATATA [CACACA_site8688] | 11.5 ± 0.94 |
| TTTTAATATTTTGCCTGTACATAAAAGTGAGAAGAT [XGTACX_site2503] | 11.2 ± 0.59 |
| AATCTATATTAATACACACACACATATATTTATATA [CACACA_site7732] | 10.05 ± 0.092 |
| TTTATTTTGACAGATTGTACACTTTATACATGTTTT [XGTACX_site2356] | 11.2 ± 0.79 |
| TGAAAAAAGAAAAATACACACATATAACATAATATA [CACACA_site7126] | 9.72 ± 0.18 |
| GTATATATTTCCAGAAGTACTTATTTTTATGTATGT [XGTACX_site4079] | 11.4 ± 0.78 |
| TATATATTATATAAGAGTACATATAATTATAGTTTT [XGTACX_site5039] | 11.2 ± 0.83 |
| TATAAAGGTTGGTACTGTACAATATAAGAAAAAAAA [XGTACX_site435] | 11.1 ± 0.5 |
| AAATAGTTCATAAAAAGTACAAAATTTTTATCCGTA [XGTACX_site2796] | 11.2 ± 0.79 |
| ATCATTCATTTAACAACACACAACATATTTATCATA [CACACA_site1041] | 9.855 ± 0.035 |
| CTCACAAATGAATACACACAAACATATATATTTATA [CACACA_site1620] | 10.2 ± 0.35 |
| ACTATATATATAAGTGCATGTTCATTATACCTAAAG [TGCATGCA_site696] | 10.3 ± 0.11 |
| AAAAATTCATTTTTATGTACGTACAAATTCTTCGTT [XGTACX_site2471] | 11.8 ± 0.87 |
| AGTAAATTATATATCTGTACATATATATATGTGTAT [XGTACX_site5519] | 11.1 ± 0.62 |
| TTTTAAAAAAATATAATACACACCAAAAATATGCAC [CACACA_site2131] | 10.3 ± 0.18 |
| AAAAAAATATAAATACGTACATATATATATATATAT [XGTACX_site432] | 11.5 ± 0.98 |
| CTATTCTATTTTTATTGTACATATATATAATTTGAA [XGTACX_site389] | 11.1 ± 0.6 |
| AGAAAGGAAAAAACCTCACACATGCTTTTAATAGTA [CACACA_site4602] | 9.77 ± 0.15 |
| TGGAATAATACGCGTACACACATATAAATATTAATA [CACACA_site6211] | 11.7 ± 0.91 |
| ATATAATGGCTAAATAGTACAATATAATATTTTTTA [XGTACX_site8922] | 11 ± 0.71 |
| ACACATGAATATTGTAGTACGGCAATTAATATAATA [XGTACX_site4589] | 11.2 ± 0.59 |

| Sequence | gcPBM binding intensity (ln) |
| --- | --- |
| CAAATACACCAACACACACACACAAAAAAAAAAAAA [CACACA_site514] | 10.3 ± 0.58 |
| TAAGTACGACTTGACACACATACACATATATATATA [CACACA_site1286] | 11.2 ± 0.8 |
| ATTACCAACAGATCTTGTACATATTAAAGCATCTTA [XGTACX_site2361] | 10.8 ± 0.49 |
| ATATACAAAGAAGCAGTGCATATTTTCTTATTTATG [GTGCAC_site9567] | 9.77 ± 0.14 |
| TTGATTTCATTTTAAGTGCATAACTAATATTATATA [GTGCAC_site9713] | 9.95 ± 0.028 |
| TTCTTTATATATTTTTGTACATATTTATTTTTAGAG [XGTACX_site6757] | 11.1 ± 0.38 |
| TGAAAGAATAGAATGAGTACTAATTTAAATTACACT [XGTACX_site1120] | 11.1 ± 0.72 |
| ATGTATGGTTTATATGTTCATTTGTTCACCTATTTA [CACACA_negctrl_site1533] | 10.27 ± 0.021 |
| AAAAAAAAAAAAAACACACACACACCCATACCCATA [CACACA_site5577] | 10.5 ± 0.33 |
| TTAGGTAGAAAAAAGACACACACATTATATATATAT [CACACA_site8016] | 10 ± 0.18 |
| ATATATATTTAAGAGGGTACAAAAATTTATGAGCAT [XGTACX_site6156] | 10.9 ± 0.51 |
| ATAAAACAAGCAAATCGTACAAAAGGATAATATATA [XGTACX_site5592] | 11 ± 0.54 |
| ATATATATATATGTTAGTACATAACAAGTGTGCATA [XGTACX_site1527] | 11 ± 0.49 |
| TCTTTGGTAATATATATGTATAAATATAAATATATA [CACACA_negctrl_site1566] | 9.96 ± 0.27 |
| GATAAAATGAGACCAGTGCATTATTAGTTGTACACC | 11.6 ± 0.84 |
| TTTTTTGCTAAGTGTACACAAATGTTTATTAATTTA [CACACA_site5859] | 11.7 ± 1 |
| AAAAAGAAAAAAAACACACACAAATATAAATAAATA [CACACA_site1183] | 9.65 ± 0.15 |
| ATATATATATATATATGTACATATTACATTACTTAT [XGTACX_site749] | 11.1 ± 0.65 |
| TGTGCTTATCCTAACACACACAACATATAAGAAAAA [CACACA_site3319] | 10.1 ± 0.23 |
| AAAAAATAAAAAATATGTACACATTCAAAATTTTAC [XGTACX_site8479] | 11.4 ± 0.94 |
